Measured values published in the supplement of paper PMC3334620.
In all, about 33,000 sequences were measured (“E-score (-0.5 to 0.5)”: median about -0.012, highest 2% from about 0.29 on). The list shows a part of the results.

Each sequence was assayed against T1, Ybr033w (UniProt P38073) (assay: PBM E-score (8-mer binding enrichment) (E-score (-0.5 to 0.5)); higher = stronger / more preferred TF binding; most listed sequences are background and not binding sites). Conditions: protein concentration: 200 nM; construct: GST-full length.
T1 sequence: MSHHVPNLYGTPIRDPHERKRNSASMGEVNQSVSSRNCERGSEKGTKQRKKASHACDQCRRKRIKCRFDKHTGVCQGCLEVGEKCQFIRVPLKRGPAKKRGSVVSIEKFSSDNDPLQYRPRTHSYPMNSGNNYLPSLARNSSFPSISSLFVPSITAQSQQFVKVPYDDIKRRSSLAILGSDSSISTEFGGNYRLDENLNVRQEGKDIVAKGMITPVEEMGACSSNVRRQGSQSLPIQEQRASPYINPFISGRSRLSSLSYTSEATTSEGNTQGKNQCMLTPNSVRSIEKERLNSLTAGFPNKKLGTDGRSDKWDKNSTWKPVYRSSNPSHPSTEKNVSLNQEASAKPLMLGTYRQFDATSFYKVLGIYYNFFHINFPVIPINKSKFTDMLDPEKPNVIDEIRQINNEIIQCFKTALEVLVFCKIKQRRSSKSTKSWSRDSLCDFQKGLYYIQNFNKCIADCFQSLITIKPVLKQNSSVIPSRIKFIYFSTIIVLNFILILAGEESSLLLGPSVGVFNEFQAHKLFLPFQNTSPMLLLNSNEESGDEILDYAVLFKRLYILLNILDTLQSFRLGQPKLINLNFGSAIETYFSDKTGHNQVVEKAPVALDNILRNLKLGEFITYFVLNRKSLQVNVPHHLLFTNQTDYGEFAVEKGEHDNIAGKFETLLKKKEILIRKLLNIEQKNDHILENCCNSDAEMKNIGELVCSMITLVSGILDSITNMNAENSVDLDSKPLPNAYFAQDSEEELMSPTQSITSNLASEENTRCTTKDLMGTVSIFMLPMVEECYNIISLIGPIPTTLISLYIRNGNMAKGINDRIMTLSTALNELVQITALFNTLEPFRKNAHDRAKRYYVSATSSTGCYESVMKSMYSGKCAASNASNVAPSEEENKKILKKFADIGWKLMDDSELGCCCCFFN
Outline: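 Bound GST-tagged yeast transcription factors, applied at about 100-200 nM to double-stranded universal all-10-mer Agilent arrays, were detected with fluorescent anti-GST. Scans were normalised with masliner. A modified Wilcoxon-Mann-Whitney statistic, the E-score, was assigned to each ungapped eight-base word pooled with its reverse complement by the Universal PBM Analysis Suite.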

Sequence	PBM E-score
ATATCCTG	0.0849
AGGCCTAC	-0.0682
AAGCCGTG	-0.135
CGGGTTTC	0.0357
AACAGATT	0.13
GACCTCAC	-0.204
CATCGTTA	-0.0287
ATTCATTA	0.263
CATTGTGG	0.116
TCCCAGCA	-0.042
AGAAAACA	0.218
ACAAATGC	0.161
CGGAAACC	-0.142
AAAGGACA	0.0726
GTCATGGA	-0.00482
TAGCCGCA	-0.201
GTAAAGAC	0.00317
CCCTCAAA	-0.0244
ATTAATTC	0.291
AGGGATCA	0.169
AGCAACCC	-0.239
GTGAGAAC	-0.0982
CACTGAGC	-0.0483
AACGGGGT	-0.308
GAAGCGAA	0.107

Sequence	PBM E-score
AGTATCGG	0.144
ACATTCGT	0.0954
ACAGACTG	-0.0639
TCACACGA	-0.00326
ATGATTAA	0.231
GCCCTGAC	-0.184
TACACTGA	-0.0494
CACCTATA	0.0106
AGACGTCG	-0.119
GACGGTAA	-0.139
ACAAAGGA	0.0792
CAATTAGG	0.0673
CTCCAATA	0.164
ATCGGCCG	-0.104
ATAGAGAA	0.167
CCCGATGA	0.037
TATGGCGA	-0.168
ACAGGCAC	-0.222
CAGTCAAA	0.113
ACTCTGAA	0.1
AATACCGA	-0.0395
CTAATCGA	0.0895
CGTGACTA	0.137
CAATGCAG	-0.0246
CTTACAGA	-0.125

Sequence	PBM E-score
AGCGCAGC	-0.189
AGATAAGA	0.154
AGTTAACC	0.0309
AGGAGCAT	0.00681
AATACATT	0.218
CGAGACGC	-0.00578
CGCATAGA	0.13
CACTTGAA	0.166
TCTTAACA	0.0312
AAACGCTT	0.0762
TCGGGTCA	-0.0281
CGCTATAA	0.127
AAGCGTGT	-0.18
AGTTGTTA	0.174
ATCCGCCG	0.142
AGCCAGTG	-0.331
AACACTCT	0.12
CCCTGCGG	-0.312
AAAAGTGG	0.101
ACAATGTC	0.125
AGTACTAT	0.123
CCAAATGC	0.0718
ACTATGCC	0.0672
ATTACTCA	0.296
ATTGAATG	0.13

Sequence	PBM E-score
GACCGATC	-0.153
GTGTTGAA	-0.0491
AAGGTCCA	-0.171
GGGCCCCA	-0.404
CATAGGTC	-0.0418
AGAAGCCC	-0.0493
CGCAGACG	-0.0446
AGTCCTCA	0.0412
ATCCTGCA	0.0162
CAAGTACG	-0.00672
CGCTTAAC	0.0526
CAGACGAG	-0.108
CCGCGCAG	0.0791
CCGTATCG	-0.203
GGGCCACA	-0.162
ATTCGCGC	0.102
CCGTCGTC	-0.243
AGCTTGAC	-0.152
CCCCCTTA	-0.369
GAATCACA	-0.0141
AGTGACAC	-0.0769
AATCTACA	0.254
CCCTACTC	-0.0594
AGATACCG	0.0217
ACGTAGGC	-0.163

Sequence	PBM E-score
GGCGTTAC	-0.0878
ACCTTAGG	-0.262
CCGTCACA	-0.222
TACTTTCA	0.147
ACGAAGGG	-0.163
CTTACATA	0.173
CAATCGTC	0.06
AACCTATC	0.02
AAAGCTCT	-0.262
AGCGGAGG	-0.252
CTTGGCTC	-0.146
GGAATCGA	-0.0596
AACATCAC	0.0076
TTACAGAA	0.113
GTATCACA	0.0793
GAACAAAC	0.345
AGTCGTGG	-0.0106
ATACACAC	0.106
TGCGTTAA	0.0117
CAAAGGGA	-0.0104
AGCACGTC	-0.137
AGTACCAA	0.223
CCGGGCCC	-0.214
ACGGCGGA	-0.127
CACGGTTA	0.122

Sequence	PBM E-score
CAAATTCC	0.16
CCATAGAA	-0.0319
AGCCGATA	-0.21
GGTCTGAA	0.0775
CTTGACTC	-0.0933
ATGAGGCC	-0.317
ACTTACGG	0.168
AAATGGCC	-0.249
ACAGACGG	-0.0903
GCTGTGGA	-0.0604
TTGGTAAA	0.214
GAATCGCC	-0.138
CCCGTGAA	-0.0743
AGGCTTCC	-0.067
AGGAGGCA	-0.135
CGGATGTA	0.0327
TGATCTAA	0.113
GTAGAAAA	0.263
TATAATCA	0.224
CAGGACAC	-0.139
ATCAACGA	0.138
AAATATAT	0.339
AACAACCG	0.0533
CGCAAAAA	0.225
CAAGAATC	0.138

Sequence	PBM E-score
TGCTGACA	0.0435
GCCAAGTA	-0.197
CGCTACTA	0.218
ATTCGTGA	0.0297
GCACGAAA	0.132
GCGCTGTA	-0.229
AACACCCA	-0.139
ACATTGCG	0.0729
ATCATATC	0.176
GACAATGA	-0.0921
GCAGCCGA	-0.0905
GAGTGCCA	-0.244
ATAGAGAT	0.203
GGTCTTCA	-0.245
CAAGCCGA	0.0944
AAATGTAT	0.263
AAGCACAG	0.028
CAGATGTA	-0.155
AACATTAT	0.233
GGGGATAA	0.0499
AACAGTCG	-0.0501
AAAGCAAC	0.0832
TCTAGCCA	0.0668
ACTCCGGG	0.0652
CCCTTCGC	-0.251

Sequence	PBM E-score
ACAGTATG	-0.082
CACTTCCA	-0.0205
AGCGCCTC	-0.211
AGTCCACA	-0.0565
ACCCCACT	-0.0303
CATATAAC	0.0232
CGGGTTCA	-0.104
CTGACGGC	-0.144
AATTACGC	0.00358
ATCACAGA	0.139
AGGCAAAA	0.222
AGCCAGAT	0.0466
GGAACTAA	0.108
AACGGACC	-0.0412
ACCGAGAG	-0.0831
GCCGCTTA	-0.00141
GGGCGTGA	-0.157
CCGAAGAG	-0.0592
GTCGACAA	-0.159
TATACAAA	0.356
ACAAGTTC	0.201
CCAATGAG	-0.247
AGCTGTCG	-0.125
ATATGTCC	0.00162
ACCCCCAT	-0.362

Sequence	PBM E-score
CCGAACCC	-0.361
CGTGGGAG	-0.0549
CCGCACTA	0.117
CTTCCTAA	0.111
TAATCCAA	0.279
CCCGAGTA	0.139
CCCTCTCA	-0.345
ACTCGAAG	-0.242
CCCCAAAC	-0.101
ATACTTTC	0.177
GCCACGAA	-0.226
ACTCTGTC	-0.0827
CTTGATAA	0.267
GTCAGCAC	-0.0443
CGCTCGCA	0.0333
AAAACAGA	0.202
AATCACTC	0.0577
CATTCTAA	0.165
ATCAGAGA	0.129
ACGCACCA	0.00766
TACTATCA	0.206
GGGGCAGA	-0.101
GTTTCGCA	-0.0794
CATATACC	-0.165
ACCCGCGT	-0.0336

Sequence	PBM E-score
ACTGAGTG	0.159
GAAGTGTC	-0.0303
AGGTTTCA	0.05
ACTAAGCA	0.122
CCTGCTGC	-0.0853
AGATAGCA	0.0858
ACGTGTTA	0.13
AGCGTTAA	0.0525
AGAAGGAA	0.0518
ATTGTTCA	0.207
GACTTTAC	0.03
CTAGGCGA	0.00833
ACGGGAAC	-0.0305
CGATAGTA	0.0142
CTACATGA	-0.00626
CTGTTTGC	0.0774
TAGCGCGA	0.0794
AGGCCACG	-0.207
CGATTGAA	0.0157
ACAAACAG	0.0852
TCTGGGCA	-0.0147
AGCCGACT	-0.204
CCCGGCCA	-0.284
CGCGCCGA	-0.154
TGAAGACA	-0.169

Sequence	PBM E-score
GATAAGAA	0.0799
CGAGCATC	-0.121
AGCCGTAC	-0.0294
AGAACGAA	0.161
ACGTCCAC	-0.105
AGCCACCC	-0.296
ACCGAAAT	0.04
AAAGGTAT	0.125
AGCAGTCG	-0.0427
AGCATAAA	0.141
GAACCAAA	0.171
GCTGCGCC	-0.166
CAACTAAG	0.121
CAAGTCTC	-0.0267
CAGCTGCA	-0.167
AGCCCTTC	-0.128
TTACGTAA	-0.0918
AGTAGGAC	-0.0355
ACTGATAG	-0.0225
ACGTTAAG	0.0414
TGCCACCA	-0.203
CGGATACC	-0.0794
ACCTAAGC	0.0193
CGTTCTCC	-0.0553
AGATCAGA	-0.114

Sequence	PBM E-score
GGTGCTCA	-0.00859
CGGACCGC	-0.22
AATCTAGA	0.128
AGAAGCAC	-0.0459
ATCTAACG	0.105
AGCTAGTC	0.0503
CATCTCGC	-0.134
AACTGTCA	0.0683
ACCTGCAG	-0.308
AGTTGCGA	0.206
CCCTCGAG	-0.159
AAGACGTC	-0.16
CCTATGAG	0.00504
AAAAACGC	0.182
AGAGCGAC	-0.081
AGATGACG	-0.0606
GAGTTGCC	0.0173
ACCCTTGA	-0.096
ACAGTGTA	0.00123
ACAATGCG	0.106
TAAAGTGA	0.259
ACTCCAAG	0.0778
ACGGTAAA	0.149
CATATTTA	0.28
GCCCTAGC	-0.162

Sequence	PBM E-score
GCGGTCAA	-0.197
CCGCGGTC	-0.176
AAGATAAT	0.307
GTCTAGCA	0.13
TTTGCAAA	-0.0644
TCACGTCA	-0.0404
GAAGTGCA	-0.0645
AGTGGGGC	-0.271
TACAAGTA	0.19
GCACCGGC	-0.193
AGGGCGTA	-0.0274
ATCCTACG	0.00923
CGTGCCGA	-0.135
ATAATCCA	0.327
ATAGGGAG	-0.219
CCCACTTC	-0.0842
ATATCCAG	0.0896
GGGTACGA	-0.146
ATCTACAT	0.152
TAAACATA	0.196
AAACATAA	0.248
CCGGTCGA	-0.23
ATTTGTTG	0.198
AGGCAAAG	-0.123
AATGGAGA	0.0527

Sequence	PBM E-score
ACTAGTCT	-0.0233
CGGTAGGA	-0.0716
GCCGCCGA	-0.0374
ATTCACGA	0.141
AGGGATAA	0.204
GACCCTGC	-0.192
CGGTTAGC	-0.147
GGGACAAC	-0.157
CGTTAATA	0.166
ATTAAGTA	0.365
GGGAAAAC	0.0792
GCCGGCCC	-0.266
GACTGTCC	-0.322
CAAGCTTA	0.0492
TATGACAA	0.167
CAATCAGG	0.0432
ATTGCAAA	0.258
CGTAAGTC	0.0179
ACCATTCG	-0.0883
